# PMC4336329 (PLoS ONE, 2015)
# Out of some 310,000 compounds screened, about 14,000 (4.5%) showed an effect of 50% or more. The effect is printed as a negative number. This is one part of the list.
# Target: human ether-à-go-go-related gene (hERG) potassium channel (human, UniProt Q12809)
# Assay: primary screen, population patch clamp on CHO cells stably expressing hERG
# 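Also: peak tail current of the secondary pulse compared with the same well before compound.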
# Sequence of human ether-à-go-go-related gene (hERG) potassium channel (Q12809 whole entry, looked up): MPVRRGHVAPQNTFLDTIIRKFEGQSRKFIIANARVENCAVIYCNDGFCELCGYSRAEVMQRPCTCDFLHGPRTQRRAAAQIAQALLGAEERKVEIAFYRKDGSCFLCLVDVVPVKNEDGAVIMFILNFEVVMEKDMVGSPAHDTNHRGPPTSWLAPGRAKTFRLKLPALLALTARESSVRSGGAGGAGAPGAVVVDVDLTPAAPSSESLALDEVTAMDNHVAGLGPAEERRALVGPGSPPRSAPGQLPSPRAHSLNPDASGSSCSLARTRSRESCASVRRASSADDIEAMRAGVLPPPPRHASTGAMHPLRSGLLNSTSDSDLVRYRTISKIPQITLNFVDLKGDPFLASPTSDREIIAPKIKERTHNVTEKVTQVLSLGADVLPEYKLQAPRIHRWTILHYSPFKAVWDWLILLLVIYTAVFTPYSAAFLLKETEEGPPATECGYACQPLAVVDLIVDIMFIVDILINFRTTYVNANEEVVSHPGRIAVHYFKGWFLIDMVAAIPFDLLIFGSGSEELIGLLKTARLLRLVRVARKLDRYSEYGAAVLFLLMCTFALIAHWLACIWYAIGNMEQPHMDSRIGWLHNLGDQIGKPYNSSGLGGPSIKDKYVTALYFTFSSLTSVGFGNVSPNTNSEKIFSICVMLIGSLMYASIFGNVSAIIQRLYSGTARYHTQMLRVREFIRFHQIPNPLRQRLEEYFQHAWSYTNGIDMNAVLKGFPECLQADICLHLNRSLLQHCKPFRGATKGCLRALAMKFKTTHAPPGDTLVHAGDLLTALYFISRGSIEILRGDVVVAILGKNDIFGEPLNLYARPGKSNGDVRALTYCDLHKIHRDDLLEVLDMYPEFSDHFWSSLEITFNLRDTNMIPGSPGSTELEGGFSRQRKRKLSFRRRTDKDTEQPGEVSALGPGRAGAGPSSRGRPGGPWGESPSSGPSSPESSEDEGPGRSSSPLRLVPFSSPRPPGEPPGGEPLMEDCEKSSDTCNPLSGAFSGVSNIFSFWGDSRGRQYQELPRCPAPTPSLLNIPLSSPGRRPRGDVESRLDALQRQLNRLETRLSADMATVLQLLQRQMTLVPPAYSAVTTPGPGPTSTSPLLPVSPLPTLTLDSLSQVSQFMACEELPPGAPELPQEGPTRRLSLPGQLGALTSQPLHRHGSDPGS
row,SMILES,"hERG current change (%, negative = inhibition) at 10uM [%]"
1,Cc1onc(-c2ccccc2Cl)c1C(=O)Nc1ccc(S(=O)(=O)Nc2nccs2)cc1,25.5
2,COc1ccc(NC(=O)C2CCN(S(=O)(=O)c3c(C)noc3C)CC2)cc1OC,14.6
3,COc1cc(OC)c(OC)cc1CNC(=O)c1ccc(S(=O)(=O)N2CC(C)OC(C)C2)cc1 (centres unmarked),-11
4,O=c1cc2c(nn1Cc1ccccc1Cl)-c1ccccc1CC2,-12.5
5,CCCCOc1ccc(-c2nnc(-c3ccncc3)o2)cc1,-10.2
6,COc1ccc(OCC(=O)N2CCN(S(=O)(=O)c3ccccc3[N+](=O)[O-])CC2)cc1,-31.2
7,Cc1ccc2c(c1)N(C(=O)CCC(=O)NCCCN(C)Cc1ccccc1)CCO2,-68.3
8,O=C(CSc1nnc(-c2ccccc2)n1-c1ccc(Cl)cc1)N/N=C/c1ccco1,-55
9,O=C(c1ccccc1)c1ccc(C(=O)N2CCN(c3ccccc3Cl)CC2)cc1,-13.3
10,C=CCn1c(SCC(=O)Nc2ccc3c(c2)OCO3)nnc1-c1ccccc1O,-12.3
11,CCOC(=O)N1CCN(C(=O)CSc2nnc(COc3ccccc3)o2)CC1,-11
12,COc1cccc(CN(Cc2cccnc2)S(=O)(=O)c2ccc(-n3cnnn3)c(C)c2)c1OC,-25.5
13,CCCC(CCC(=O)Nc1ccc(C(=O)OC)cc1)C(=O)O (centres unmarked),-10.6
14,Oc1ccc(NCc2ccc(OCc3ccccc3)cc2)cc1,15.8
15,Cc1cccc(-n2c(-c3ccco3)n[nH]c2=S)c1,15.7
16,CCC(C)C(=O)Nc1nnc(SCC(=O)NC2CCCC2)s1 (centres unmarked),14.8
17,CC1(C)OC2C(CO)OC(n3cnc4c(=S)nc[nH]c43)C2O1 (centres unmarked),13.6
18,COc1ccc(-n2c(SCC(=O)NC3CCCCC3)nc3ccsc3c2=O)cc1,-21
19,CCN(C(=O)COC(=O)CNS(=O)(=O)c1ccccc1)c1ccccc1,13.1
20,CCN(CC(=O)Nc1cc(Cl)ccc1C)C(=O)Cc1sc(C)nc1-c1ccc(F)cc1,-19.2
21,COc1ccc(OC)c(C(=O)Cn2nnc3ccccc3c2=O)c1,9.14
22,O=C(CCc1nc2ccccc2c(=O)[nH]1)N1CCN(c2ccc(F)cc2)CC1,-68
23,CCOC(=O)c1nc2sc(C)c(C)c2c(=O)[nH]1,-2.21

row,SMILES,"hERG current change (%, negative = inhibition) at 10uM [%]"
1,COc1ccc2oc(C(=O)OCC(=O)Nc3cc(S(=O)(=O)N4CCOCC4)ccc3OC)c(C)c2c1,-8.22
2,CCCCC(=O)NC(c1ccco1)c1c(O)ccc2ccccc12 (centres unmarked),-2.6
3,CC1=CC(C)C(CN(CCC[N+](C)(C)C)C(=O)Nc2ccccc2)C(C)C1.[I-] (centres unmarked),22.7
4,Cc1sc(NC(=O)c2ccco2)c(CN2CCN(c3ccccn3)CC2)c1C,-7.81
5,CN(C)c1ccc(C(=O)NC2CCCc3ccccc32)cc1 (centres unmarked),7.5
6,CC1(c2ccc(Cl)c(Cl)c2)NC(=S)N2C1NC(=S)N2c1ccccc1 (centres unmarked),10.9
7,CCOC(=O)c1sc(=S)n(C)c1NC(=O)c1ccccc1C,4
8,CNc1sc(C(=O)c2ccccc2F)c(N)c1-c1nc2ccccc2s1,10.5
9,CCOc1ccccc1NC(=O)Nc1ccc2c(c1)OCO2,4.49
10,CC(C)CN1C(=O)NC(NC(=O)c2cccs2)(C(F)(F)F)C1=O (centres unmarked),-17.8
11,CCN(CC1CCCO1)C(=O)CCc1nnc(CCc2ccccc2OC)o1 (centres unmarked),-3.32
12,COc1ccc(CCc2nnc(CCC(=O)NCc3cnc4ccccn34)o2)cc1,13.3
13,Cc1ccc(NC(=O)CSc2nn(-c3ccccc3)c(=S)s2)cc1S(=O)(=O)N(C)C,13.9
14,CC1Cc2nc(SCC(=O)N3CCOCC3)n(-c3ccccc3)c(=O)c2S1 (centres unmarked),5.44
15,CC(CCc1ccccc1)NC(=O)c1ccc2nc(N3CCOCC3)sc2c1 (centres unmarked),3.85
16,Cc1ccc(C)c(N(C(=O)c2csnn2)C(C(=O)NC2CCCCC2)c2ccccn2)c1 (centres unmarked),1.87
17,CC(=O)Nc1ccc(-c2nc3c(C)cccc3[nH]2)cc1,6.65
18,Cc1c(C(=O)Nc2ccc3c(c2)OCO3)sc2nc(-c3ccccc3)cn12,20.4
19,Cn1cnnc1-c1cccc(NS(=O)(=O)c2ccc(N3CCCC3=O)cc2)c1,9.92
20,COC(=O)c1c(NC(C)=O)sc(C(=O)Nc2ccccc2C)c1C,16
21,Cc1ccc(N=C(NO)c2cnccc2C(F)(F)F)c(C)c1,8.93
22,CCC(C)(C)NC(=O)C(c1ccncc1)N(Cc1ccc(C)cc1)C(=O)c1csnn1 (centres unmarked),-14.1
23,O=C(c1ccco1)N1CCN(C(=O)C2CC(c3ccccc3F)=NO2)CC1 (centres unmarked),-18.3

row,SMILES,"hERG current change (%, negative = inhibition) at 10uM [%]"
1,CC(=O)c1cc2c(cc1NC(=O)CSc1nc3ccccc3[nH]1)OCO2,-45.3
2,COc1ccc(N(CC(=O)NCc2ccc(C)cc2)S(=O)(=O)c2c(C)[nH]c(=O)[nH]c2=O)cc1,23.1
3,CC1CCN(C2CC(=O)N(c3ccccc3)C2=O)CC1 (centres unmarked),8.4
4,N/C(=N\OC(=O)c1cc(Cl)ccc1Cl)c1ccccn1,-16.5
5,O=C(CCC1CCCC1)NNC(=O)c1cccc(Cl)c1,9.7
6,CCCCCC1NC(=O)NC1CCCCCC(=O)O (centres unmarked),2.14
7,O=C1CCC(N2C(=O)c3ccccc3C2=O)C(=O)N1 (centres unmarked),30.7
8,COc1ccc2[nH]c(C(=O)O)c(NC(=O)c3cc(OC)c(OC)c(OC)c3)c2c1,17.8
9,CC1=CC(C)=Nc2ccc(C)cc2N1,1.98
10,Cc1csc(NC(=O)CSc2nc(=O)cc(N)n2-c2ccc(F)cc2)n1,13.2
11,COC(=O)C1CCN(c2cc(=O)n(-c3ccc(OC)cc3)c(=O)[nH]2)CC1,9.37
12,O=C1CNC(=O)/C1=C\c1ccc(O)cc1,11.1
13,Cc1nc(NCC2CCCO2)nc2c1C(=O)CC(C)(C)C2 (centres unmarked),10.4
14,Cc1[nH]nc2c1C(C(C)C)C(C#N)=C(N)O2 (centres unmarked),10.3
15,Cc1noc(C(=O)Nc2sc3c(c2C#N)CCC3)c1Cl,14.1
16,Cc1ccc(N/C=C(/C#N)c2ccsc2)cc1,-5.02
17,O=c1c2ccccc2c(=O)n(Cc2ccccc2)n1Cc1ccccc1,16.8
18,CCSc1nc(-c2ccc(OC)cc2)n(-c2nc3ccccc3s2)n1,-4.52
19,O=C(Nc1ccccc1N1CCOCC1)c1ccccc1NS(=O)(=O)c1ccc(F)cc1,0.521
20,COc1ccc(-c2nc(CS(=O)CC(=O)N3CCc4ccccc4C3)c(C)o2)cc1 (centres unmarked),-19.6
21,COc1ccc(/C=N/Nc2cc(C)nc(N3CCOCC3)n2)c(OC)c1,18.5
22,O=C(c1cc(-c2ccccc2O)on1)N1CCCC1,7.79
23,CCN(CC)S(=O)(=O)c1ccc(N2CCOCC2)c(NC(=O)c2ccc(F)cc2)c1,-72.3

row,SMILES,"hERG current change (%, negative = inhibition) at 10uM [%]"
1,COC(=O)c1ccc(NC(=O)CSCc2ccccc2C)cc1,-24.8
2,CC(C)CCNC(=O)COc1cccc2c1OC(C)(C)C2,2.83
3,Cc1ccc(C)c(N(CC(=O)NN=C2CCCCCCC2)S(C)(=O)=O)c1,-5.63
4,CC(C)=CC(=O)Nc1nnc(-c2ccccc2)s1,-4.28
5,CC12CCC(=O)N1C(C(=O)Nc1cccc3ccccc13)CS2 (centres unmarked),4.6
6,Fc1ccccc1NC(=S)NC1CCCC1,14
7,COc1ccccc1NC(=O)C(CCS(C)(=O)=O)N1C(=O)c2ccccc2C1=O (centres unmarked),14.2
8,CCSc1nnc(-c2ccccc2NC(=O)CC)c(=O)[nH]1,20.4
9,COc1ccc(CNC(=O)CN(Cc2ccc(F)cc2)C(=O)c2csnn2)cc1,-70.4
10,O=C(Cn1cc[n+](CC(=O)c2ccccc2)c1)c1ccccc1.[Br-],0.024
11,Cc1cc(CNC(=O)CC2C(=O)NCCN2Cc2ccc(-c3ccccc3)cc2)nn1C (centres unmarked),-4.68
12,CCOC(=O)C12CNC(=O)C(C(=O)OCC)(CNC1=O)C2,22.8
13,COc1ccc(-c2sc3cc4c(cc3c2C#CC2(O)CCCCC2)OCO4)cc1,14.4
14,O=C(NCC1CCCO1)C(c1cccs1)N(Cc1ccccc1Cl)C(=O)c1ccc(-c2ccccc2)[nH]1 (centres unmarked),24.2
15,O=C(c1ccc(Cl)cc1)N1CCC(C(=O)N2CCCc3ccccc32)CC1,-76.4
16,CCOc1ccc(NC(=O)Cc2ccccc2)cc1,-4.88
17,COC(=O)C1=CN(CCCN2CCCC2=O)C=C(C(=O)OC)C1c1cccs1,-25.1
18,OC1(c2ccc(Br)cc2)CCN(Cc2cccc(Br)c2)CC1,-42.1
19,O=C(Nc1ccccc1)c1cccc(-c2nnc(-c3ccccc3)o2)c1,4.53
20,Cc1ccc(NC(=S)NCCSc2ccc(Cl)cc2)cc1,7.21
